± gives the standard deviation. In all, about 6,600 sequences were measured (“pre-steady-state target cleavage rate”: median about 0.07, highest 2% from about 0.72 on). The list shows a part of the results, in another mix than the full data.

Here are results for 72 sequences from the supplement of paper PMC10338343.

In this test the test system is MIWI (PIWIL1) piRISC loaded with Kctd7 piRNA (30 nt). The test can be described thus: pre-steady-state target cleavage rate (min^-1); MIWI and MILI are mouse PIWI proteins and EfPiwi is from a freshwater sponge; tags in brackets are library labels; higher = faster piRNA-guided slicing of the target. The note with it: guide: Kctd7 piRNA 5'p-UGUUAAUCUCUCAGAGAAGGUGACAGUGAU; auxiliary factor: 500 nM mouse GTSF1. An outline of the steps: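 The pre-steady-state cleavage rate was obtained by Cleave-'n-Seq with a burst-and-steady-state fit. A transcribed, DNA-blocked target RNA library (0.1 nM) was mixed with 1 nM active affinity-purified piRISC carrying one synthetic guide, with or without 500 nM GTSF1 partner protein, in HEPES–potassium acetate buffer at 33 °C for 0–8 or 0–960 min. Uncleaved targets were sequenced and normalised to depth and to weakly complementary targets, with three trials pooled and k3 capped at 0.0001 min^-1.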
As to UAGAGUGUCAGCUUCUCUGAGAGAUUAACA, the “pre-steady-state target cleavage rate” value amounted to 0.772 ± 0.044.
Consider UAGUCUGUGCACCUUCUCUGAGAGAUUAACA, for which the “pre-steady-state target cleavage rate” value stood at 0.417 ± 0.036.
UUGACUGUCACCUUGUCUGAGAGAUUAACA: the “pre-steady-state target cleavage rate” value amounted to 0.437 ± 0.069.
As to UAGUGUGUCACCUUCUCUGAGAGAUUAAUCA, the “pre-steady-state target cleavage rate” value was 0.313 ± 0.042.
For the sequence UAGUCUGCUCACCUUCUCUGAGAGAUUAACA, the “pre-steady-state target cleavage rate” value was determined as 0.607 ± 0.035.
To AUCAGUGUCAGCUUCUCUGAGAGAUUAACA belongs 0.734 ± 0.034.
As for AUCACUGUCACGUUCUCUGAGAGAUUAAGA, the “pre-steady-state target cleavage rate” value was 0.118 ± 0.02.
On to UUCACUGUCACCUUCUCUCAGAGAAUAACA, for which the “pre-steady-state target cleavage rate” value was determined as 0.0324 ± 0.0074.
As to AUCACUGUCACCUUCUGUCAGAGAUUAACA, the “pre-steady-state target cleavage rate” value was found to be 0.0155 ± 0.0058.
In the case of AUCACUGUCACCUUCUCUGUGAGAAUAACA, the “pre-steady-state target cleavage rate” value is 0.0993 ± 0.019.
For the sequence AUCACUGAGACCUUCUCUGAGAGAUUUUGA, the “pre-steady-state target cleavage rate” value worked out at 0.0423 ± 0.012.
To UAGUGACAGACCUACUCUGAGAGAUUUACA belongs 0.00746 ± 0.0032; to UACACUGUCACCUUCUCAGAGACAUUAACA, 0.122 ± 0.013; to UAGUGACAGUCCUCCUCUGAGAGAUUAACA, 0.152 ± 0.011.
As for UACACUGUCACCUUCUCUCUGAGAUUAACA, the “pre-steady-state target cleavage rate” value is 0.0197 ± 0.0062.
Regarding UACACUGUCACCUUCUCUGAGAGACUAACA, the “pre-steady-state target cleavage rate” value worked out at 0.264 ± 0.031.
Consider UAGACUGUCUCCUUGUCUGAGAGAUUAACA, for which the “pre-steady-state target cleavage rate” value amounted to 0.162 ± 0.025.
To UAGACUCACACCUUCUCUGAGAGAUUAACA belongs 0.529 ± 0.037.
On to UACACUGUCACCUUCUCUGAGUGUUUAACA, for which the “pre-steady-state target cleavage rate” value stood at 0.0779 ± 0.018.
With UAGUGUGUCACCUUCUCUGAGAGAUUUUGA, the “pre-steady-state target cleavage rate” value came to 0.105 ± 0.023.
As for UUCUCAGUCACCUUCUCUGAGAGAUUAACA, the “pre-steady-state target cleavage rate” value is 0.19 ± 0.032.
In the case of UUCACAUGUCACCUUCUCUGAGAGAUUAACA, the “pre-steady-state target cleavage rate” value amounted to 0.299 ± 0.029.
Consider UACACUGUCACCUUGACUGAGAGAUUUUGA, for which the “pre-steady-state target cleavage rate” value amounted to 0.117 ± 0.039.
With UACACUGUCACCUUCUCUGAGAGAUUAAACA, the “pre-steady-state target cleavage rate” value was found to be 0.409 ± 0.038.
Consider UAGACUCUCACCUUCUCUGAGAGAUUUACA, for which the “pre-steady-state target cleavage rate” value came out at 0.273 ± 0.04.
Take UAGUCUGUCACCUUGUCUGAGAGAUUAAGA: the “pre-steady-state target cleavage rate” value came out at 0.0831 ± 0.026.
Regarding UAGACUGUCACCUUCUCUGAGAGAUUACCA, the “pre-steady-state target cleavage rate” value came out at 0.178 ± 0.032.
In the case of UAGUGACUCACCUUCUCUGAGACAUUAAGA, the “pre-steady-state target cleavage rate” value amounted to 0.00631 ± 0.0029.
To UAGUGACAGACCUUCUCUGAGAGAUAUACA belongs 0.0324 ± 0.0083; to AUCACUGACACCUUCUCUGAGAGAUUAUGA, 0.137 ± 0.032.
As to UAGUCUGUCACCUUCUCUGAAAGAUUAACA, the “pre-steady-state target cleavage rate” value came out at 0.474 ± 0.023.
With UAGUGAGUCACCUUCUCUGAAGAGAUUAACA, the “pre-steady-state target cleavage rate” value turned out to be 0.00466 ± 0.004.
To UAGUGACAGACCUUCUCUGAGAGAGUUAACA belongs 0.0818 ± 0.014.
As for UAGUGACUCACGUUCUCAGAGAGAUUAACA, the “pre-steady-state target cleavage rate” value stood at 0.0234 ± 0.005.
On to UAGACUCUCACCUUGUCUGAGAGAUUAACA, for which the “pre-steady-state target cleavage rate” value was 0.237 ± 0.027.
For UAGUGACUCACCAUCUCUGAGAGAUUAACA, the “pre-steady-state target cleavage rate” value was determined as 0.306 ± 0.025.
To AUCAGUGUGACCUUCUCUGAGAGAUUAACA belongs 0.562 ± 0.025.
Take UAGUCUGUCACGUUCUCUGAGAGAUUAACA: the “pre-steady-state target cleavage rate” value is 0.692 ± 0.033.
For “UAGUGUGUCACCUUCUCUCUCUCUAAUUGA [g13:g25:cont:t1A]”, the “pre-steady-state target cleavage rate” value was determined as 0.00462 ± 0.0042.
As for UACACUCACACCUUCUCUGAGAGAUUUUGA, the “pre-steady-state target cleavage rate” value worked out at 0.0434 ± 0.014.
For the sequence UAGACUGUCUCCUUCUCUGACAGAUUAACA, the “pre-steady-state target cleavage rate” value amounted to 0.198 ± 0.023.
Turning to UAGACUGUCACCUUCUCUGAGAGAUUAGACA, the “pre-steady-state target cleavage rate” value turned out to be 0.315 ± 0.035.
To UAGUGACAGUGCUUGUCUGAGAGAUUAACA belongs 0.008 ± 0.0037; to UAGUGUUUCACCUUCUCUGAGAGAUUAACA, 0.45 ± 0.025.
To UACUGUGUCACCUUCUCUGAGAGAUUAUGA belongs 0.0969 ± 0.015; to UACUCUGUCACCUUCUCUGAGUGAUUAACA, 0.0543 ± 0.012.
Turning to UAGUGUGUCACCUUCUCUGAGAGAUUAUGA, the “pre-steady-state target cleavage rate” value amounted to 0.109 ± 0.023.
For UAGUGAGUCACCUUCUCUGAGUCUUUAACA, the “pre-steady-state target cleavage rate” value was 0.0098 ± 0.005.
For the sequence UAGUGACUCACCUUCUCUGAGAGAAAAUGA, the “pre-steady-state target cleavage rate” value was found to be 0.00519 ± 0.0033.
To AUCAGUGUCACGUUCUCUGAGAGAUUAACA belongs 0.676 ± 0.036; to UAGUGAGUCACCUUGUCUGAGAGAUAAACA, 0.0582 ± 0.013.
In the case of UAGUGUGACACCUUCUCUGAGAGAUAAACA, the “pre-steady-state target cleavage rate” value was 0.28 ± 0.039.
To UAGUGUGUGACCUUCUCUGAGAGAAUAACA belongs 0.211 ± 0.035; to UAGAUCUGUCACCUUCUCUGAGAGAUUAACA, 0.621 ± 0.03.
As for UAGUCUGUCACCUUCUCUGAGAGAUUUAACA, the “pre-steady-state target cleavage rate” value came out at 0.39 ± 0.038.
Consider UAGUCUGUCACCUUCUCUCAGAGAUUAUCA, for which the “pre-steady-state target cleavage rate” value stood at 0.0565 ± 0.0084.
For the sequence UAGUGACAGUCCUUCUCCGAGAGAUUAACA, the “pre-steady-state target cleavage rate” value was determined as 0.0215 ± 0.0057.
Take AUCUCUGUCACCUUCUCUGACAGAUUAACA: the “pre-steady-state target cleavage rate” value came out at 0.314 ± 0.025.
To UUCACUGUCACCAUCUCUGAGAGAUUAUGA belongs 0.0549 ± 0.012.
On to UAGUGAGUCAGCUUCUCUGAGAGAUUUACA, for which the “pre-steady-state target cleavage rate” value turned out to be 0.249 ± 0.032.
On to UAGUGAGUCACGUUCUCUGACAGAUUAACA, for which the “pre-steady-state target cleavage rate” value worked out at 0.179 ± 0.025.
Regarding AUCACUGUCACCAUCUCUGAGUGAUUAACA, the “pre-steady-state target cleavage rate” value was found to be 0.0284 ± 0.0055.
As for UUCACUGUCACCUUCUCUCAGUGAUUAACA, the “pre-steady-state target cleavage rate” value is 0.00917 ± 0.0035.
To AUCACAGUCACCUUCUCUGACAGAUUAACA belongs 0.599 ± 0.037; to UUCACUGUCACCUUCUCUGAGAGAUUAAAA, 0.198 ± 0.028; to AUCACUGUCACCUUCUCUGUCUGAUUUUGA, 0.0128 ± 0.0051.
Turning to UAGACUGUCACGUUCUCUGAGAGAUUAUGA, the “pre-steady-state target cleavage rate” value worked out at 0.0108 ± 0.0035.
Take UAGUGAGUGCACCUUCUCUGAGAGAUUAACA: the “pre-steady-state target cleavage rate” value is 0.585 ± 0.048.
To UAGUCUGUCACGUUCUCUGUGAGAUUAACA belongs 0.214 ± 0.0097; to UUCACUGUCACCUUCUCUCAGAGAUUAUCA, 0.0615 ± 0.011; to UAGUCUGUCACCUUCUCACAGAGAUUAACA, 0.0188 ± 0.0059.
To UAGUGACACACCUUCUCUGACUCAUUAUGA belongs less than 0.0001.
